Assay results published in PMC6919601, “Identification of Plasmodium dipeptidyl aminopeptidase allosteric inhibitors by high throughput screening” (PLoS ONE, 2019).
Out of some 110,000 compounds screened, about 230 (0.21%) showed an effect of 50% or more. The list shows a part of the results.

Molecular target: DPAP1 (Plasmodium falciparum, UniProt Q8IIJ9)
Test: primary screen, percent inhibition; read by cleavage of a fluorogenic dipeptide substrate; higher = more effect of the substance
Set-up: species or system P. falciparum D10 trophozoite lysates; single well
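Note: 30 min substrate incubation versus DMSO and 10 µM JCP410 controls.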

DPAP1, sequence (Q8IIJ9 whole entry, looked up): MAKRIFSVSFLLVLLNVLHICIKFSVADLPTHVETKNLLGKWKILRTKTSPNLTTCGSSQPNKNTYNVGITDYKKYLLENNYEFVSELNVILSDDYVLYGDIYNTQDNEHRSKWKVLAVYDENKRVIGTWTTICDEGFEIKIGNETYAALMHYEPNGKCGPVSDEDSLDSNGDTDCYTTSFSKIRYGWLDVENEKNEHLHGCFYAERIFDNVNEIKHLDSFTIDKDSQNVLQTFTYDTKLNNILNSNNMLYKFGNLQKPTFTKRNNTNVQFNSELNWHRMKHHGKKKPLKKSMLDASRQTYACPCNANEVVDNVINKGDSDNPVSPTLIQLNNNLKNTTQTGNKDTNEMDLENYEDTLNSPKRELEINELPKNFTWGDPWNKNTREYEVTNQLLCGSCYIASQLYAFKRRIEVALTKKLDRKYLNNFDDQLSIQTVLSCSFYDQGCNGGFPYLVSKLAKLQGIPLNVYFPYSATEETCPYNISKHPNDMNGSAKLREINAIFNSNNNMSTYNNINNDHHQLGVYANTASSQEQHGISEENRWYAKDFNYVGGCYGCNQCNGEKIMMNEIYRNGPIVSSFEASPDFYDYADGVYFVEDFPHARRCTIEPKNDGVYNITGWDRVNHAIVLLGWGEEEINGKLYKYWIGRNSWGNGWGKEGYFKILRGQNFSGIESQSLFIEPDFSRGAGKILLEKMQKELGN

Structure (SMILES)	% Inhibition @ 10 uM
COc1ccc(N2CCN(C(=O)c3cccc(OC)c3OC)CC2)cc1	-0.545%
O=C(Nc1cccs1)NC1CCCc2ccccc21 (stereo not drawn)	-5.15%
CCc1ccc(OCC(=O)Nc2ccc(C(C)=O)cc2)cc1	-10.5%
Cc1ccc(C(=O)OCCc2ccccc2)cc1S(=O)(=O)N1CCOCC1	10.4%
O=C(CN(CCc1ccccc1)S(=O)(=O)c1cc(Cl)ccc1Cl)N1CCOCC1	-6.27%
COc1ccc(/C=C2\SC(=O)N(c3cccc(O)c3)C2=O)cc1OC	14.3%
Cc1cc(O)n2nc(N)c(N)c2n1	-0.396%
CSc1[nH]c2ccccc2c1CCN1CCCC1	1.17%
COc1cccc(-n2c(SCC(=O)N3CC(C)CC(C)C3)nc3nnc(C)c-3c2N)c1 (stereo not drawn)	-0.458%
COc1ccc(Cl)cc1C(=O)Nc1ccc(S(=O)(=O)N2CCC(C)CC2)cc1	1.83%
Cc1cc(NC(=O)COc2ccccc2)ccc1Cl	-4.82%
Clc1ccc(CN2CCN(c3ccccn3)CC2)cc1	-3.82%
COCc1cc(O)n2nc(C)nc2n1	-2.91%
Cc1ccc(C)c(OCCOCCN2CCN(C)CC2)c1	4.57%
CCn1c2ccccc2c2cc(C3C(C#N)=C(N)Oc4[nH]nc(C)c43)ccc21 (stereo not drawn)	3.05%
CCN(CC)C(=O)CCCOc1ccc(Cl)cc1Cl	5.55%
C=CCOc1ccccc1CN1CCSCC1	2.7%
CCOC(=O)C1=C(N)OC2=C(C(=O)CC(C)(C)C2)C1c1ccc(O)c(OC)c1 (stereo not drawn)	-5.7%
Cc1ccc(-c2nn(C)c(=O)c3ccccc23)cc1CNC(=O)c1ccc(Cl)cc1	-1.17%
CCOc1nc(-c2ccc(C)cc2)ccc1-c1noc(COC)n1	3.73%
Cc1cccc(CN2C(=O)CSc3nc(C)cc(C)c32)c1	-7.93%
CN1CCN(CCc2nnc(S)n2-c2cccc(OCc3ccccc3)c2)CC1	20.7%
CCC(C)Nc1nc(OCC(F)(F)F)nc(OCC(F)(F)F)n1 (stereo not drawn)	19%
CCC(=O)N1c2ccccc2N=C2CC(c3ccco3)CC(O)=C2C1c1ccc(OC)cc1 (stereo not drawn)	2.24%
CC(=O)C1(C)N(O)C(C)(C)C(c2ccc(C)cc2)=[N+]1[O-] (stereo not drawn)	-3.41%
CCCCNC(=O)c1ccc(CS(=O)Cc2ccc(Cl)cc2)o1 (stereo not drawn)	-5.12%

Structure (SMILES)	% Inhibition @ 10 uM
Cc1ccccc1C(=O)NC1(C(F)(F)F)C(=O)N(CC2CCCO2)C2=C1C(=O)CC(C)(C)C2 (stereo not drawn)	1.96%
Cc1cc(C(=O)N2CCc3ccccc3C2)on1	-1.7%
C/N=c1\c(N)c(O)oc2ccccc12	-3.55%
COc1ccc(C2C(C(=O)Nc3ccc(Cl)cc3)=C(C)Nc3ncnn32)cc1 (stereo not drawn)	-0.425%
O=C(NCCc1ccccc1)c1ccccc1Br	2.13%
O=C1C2C(c3ccccc3)OC3(C(=O)c4ccccc4C3=O)C2C(=O)N1c1ccccc1Cl (stereo not drawn)	16%
CCc1ccc(/N=C2\S/C(=C/c3ccncc3)C(=O)N2C)cc1	-1.24%
N#Cc1ccc(-c2ccc(OCC(=O)Nc3cccnc3)cc2)cc1	3.24%
CCN(CC)C(=O)c1sc(NC(=O)COc2ccc(Cl)cc2)c(C#N)c1C	-4.75%
c1ccc(-c2cc(-n3c(-c4ccccc4)nc4ccccc43)n(-c3ccccc3)n2)cc1	-0.807%
O=C(Nc1nnc(C2CCCCC2)s1)C1c2ccccc2Oc2ccccc21	-1.52%
Cc1ccccc1-n1cc(-c2ccc3c(c2)OCO3)nc1S	83.7%
Cc1nn(-c2ccc3nnc(C)n3n2)c(C)c1CCC(=O)O	0.708%
COc1cccc(/C=C/C2=NN(c3ccc(Cl)c(Cl)c3)C(c3cccc(OC)c3OC)C2)c1OC (stereo not drawn)	1.8%
CCC(C)NC(=O)c1c(C)cc(=O)oc1C (stereo not drawn)	-4.06%
Cc1ccc(Nc2nc(-c3cccc(N4C(=O)c5ccccc5C4=O)c3)cs2)cc1C	-2.51%
Cc1cc2c(cc1C)[n+](C)cn2CC(O)COCC1CC=CCC1 (stereo not drawn)	-1.06%
Cc1ccc(S(=O)(=O)N(CC(=O)NC2CC3CCC2C3)c2ccc(F)cc2)cc1 (stereo not drawn)	-1.04%
CN1CCc2c1nc1ccc(Cl)cc1c2N	7.92%
Cc1ccc2c(c1)-c1c(cnn1CC(=O)N1CCCN(Cc3ccccc3Cl)C1)CO2	-5.72%
Cc1ccc(C)c(Cn2c3ccccc3c3cnn(CC(=O)NCCCN4CCCC4=O)c(=O)c32)c1	1.8%
CS(=O)(=O)c1nc(S(=O)(=O)c2ccc(Cl)cc2)c(N2CCCCCC2)s1	1.15%
NC(=O)C1CCN(Cc2ccc(F)c(Br)c2)CC1	3.48%
COCC(C)NC(=O)c1cnn2c1NC(c1ccccc1)CC2C(F)(F)F (stereo not drawn)	-3.1%
O=c1c(N2CCCC2)c(Cl)cnn1Cc1ccccc1	5.09%
COc1ccc(S(=O)(=O)Nc2ccc(-c3csc(C)n3)cc2)cc1OC	-1.99%

Structure (SMILES)	% Inhibition @ 10 uM
CCOC(=O)N1CCN(CC(O)COc2ccc(OC)cc2)CC1 (stereo not drawn)	5.67%
CC(C)NC(=O)c1cc2c(-c3ccc(Cl)cc3)nn(C)c2s1	-4.96%
O=C1N/C(=C/c2ccc(Sc3ccccc3)o2)C(=O)N1Cc1ccccc1F	-0.0626%
Nc1ccc(-c2nc3ccccc3o2)c(O)c1	-5.68%
COCCNC(=O)c1ccc(CS(=O)(=O)c2ccccc2)o1	-4.96%
N#CCNC(=O)C(NC(=O)c1ccccc1)SCCc1ccccc1 (stereo not drawn)	-1.83%
Cc1oc2ncn3nc(COc4cccc(Cl)c4)nc3c2c1C	-1.86%
CN(Cc1c(F)cccc1F)CC(O)c1ccccc1 (stereo not drawn)	-1.75%
Cc1ccccc1Cn1c2ccccc2c2cnn(CC(=O)N(C)Cc3ccccc3)c(=O)c21	1.8%
Cc1cccc(C(=O)Nc2nn3c(-c4ccccc4C)nnc3s2)c1	12%
CC(C)(C)NC(=O)CSCc1c(Cl)cccc1Cl	6.24%
CC(C)C[C@H](NC(=O)OCc1ccccc1)C(=O)NC1(C#N)CCS(=O)(=O)CC1	18%
Cc1ccc(CC2(NC(=O)c3ccccc3)N=C3C=CC=CN3C2=O)cc1 (stereo not drawn)	-0.637%
Cc1cc(C)c2nc(N3CCC(C(=O)N4CCN(C(=O)c5ccco5)CC4)CC3)sc2c1	-3.35%
CN1CCN(Cc2nc3c(c(=O)n(C)c(=O)n3C)n2Cc2ccc(F)cc2)CC1	-8.06%
Cc1ccc(-c2cc(C(=O)NCC3CCCO3)c3ccccc3n2)cc1C (stereo not drawn)	-0.519%
CC(=O)Nc1ccc(-n2c(C)ccc2C)cc1	-0.736%
O=C(/C=C/c1ccc2c(c1)OCO2)c1ccncc1	-6.47%
COc1cc(CN2CCN(C(=O)Cc3ccccc3)CC2)cc(OC)c1OC	2.3%
CN(Cc1ccccc1)c1ncnc2onc(-c3ccc(Cl)cc3)c12	-0.495%
NC(=O)N1CCN(C(=O)c2ccco2)CC1	-6.99%
CC(CCN1CCCCC1CO)c1ccccc1 (stereo not drawn)	2.1%
CC1CCCN(C(=O)Nc2cn(C)c(=O)c3ccccc23)C1 (stereo not drawn)	-0.546%
CC1=C(C(=O)Nc2cccc(F)c2)C(c2ccccc2Cl)C2=C(O)CCCC2=N1 (stereo not drawn)	4.11%
CCCC(=O)NC(=O)/C(C#N)=C/Nc1cc(Cl)ccc1C	-1.06%
CCS(=O)(=O)c1ncc(Cl)c(C(=O)N(Cc2ccccc2Cl)C2CCS(=O)(=O)C2)n1 (stereo not drawn)	1.99%

Structure (SMILES)	% Inhibition @ 10 uM
COc1cc(C)c(CN2CCN(c3cccc(Cl)c3)CC2)cc1C	-1.86%
c1ccc(-c2ccnc(-c3nccs3)n2)cc1	3.24%
COc1ccc(CC(=O)Nc2ccc(C)c(C)c2)cc1	0.526%
COc1cccc(OC)c1C(=O)Nc1nc2c(C)cccc2s1	-3.29%
Cc1ccc(-c2nc3sc(-c4ccc(C)cc4)nc3s2)cc1	3.32%
Cc1cc(C)c(N2C(=O)C3C4C=CC(O4)C3C2=O)c(C)c1 (stereo not drawn)	-3.12%
CC(C)/N=C/C1=C(O)c2sccc2N(Cc2cccc(F)c2)S1(=O)=O	1.92%
CCC(C)NS(=O)(=O)c1ccc(-n2cccn2)cc1 (stereo not drawn)	-3.9%
O=C(CN1C(=O)C2C3CCC(C3)C2C1=O)Nc1cccc(Cl)c1 (stereo not drawn)	-1.22%
C=CCn1c(NCc2cc(OC)c(OC)c(OC)c2)nc2ccccc21	4.8%
Cc1ccc(C2=NN(C(=O)CCN3CCOCC3)C(c3ccco3)C2)cc1 (stereo not drawn)	2.56%
Fc1ccccc1N1CCN(Cc2cccc(Oc3ccccc3)c2)CC1	-6.47%
CC(C)CCN(C)C1CCN(S(=O)(=O)c2cccc(Cl)c2)CC1	0.387%
O=C(O)CCCNC(=O)c1ccccn1	0.0345%
N=c1n(CC(=O)O)c2ccccc2n1Cc1ccccc1Cl	-9.3%
CC(C)(C)c1cc(C(C)(C)C)c2[nH]c3c(C(C)(C)C)cc(C(=O)C(F)(F)F)cc3c2c1	4.22%
CN1CC=C(CNc2cccc3c2CCCC3)CC1	2.33%
Nc1c(-c2nc(-c3ccncc3)no2)nnn1-c1ccccc1F	-2.44%
CN(C)c1ccc(C2C(C(=O)c3cc4ccccc4o3)=C(O)C(=O)N2CCCN2CCOCC2)cc1 (stereo not drawn)	-0.865%
O=C1N/C(=C/c2ccsc2)C(=O)N1Cc1ccc(F)cc1	-3.41%
CCCC1=NN(C(=O)Cc2ccc(OC)cc2)C(O)(C(F)(F)F)C1 (stereo not drawn)	2.43%
Cc1ccc(-c2nc3ncccc3o2)cc1NC(=O)c1ccc(Br)o1	-7.34%
COC(=O)C1=C(C)NC(=O)CC1c1ccc(Cl)cc1 (stereo not drawn)	-1.96%
COCCCNC(=O)CSCc1c(Cl)cccc1Cl	1.37%
